# Test results taken from PubChem BioAssay AID1508623 (National Center for Advancing Translational Sciences (NCATS), 2021).
# The whole screen tested about 48,000 compounds, of which about 450 (0.94%) were called active. Roughly 19% stayed inconclusive and do not appear here. The call rests on the fitted dose curve; in most records, active means well fitted inhibition curve with a large enough effect; inconclusive means small, poorly fitted or top-dose-only effect; inactive means no such curve, though single readings can be large or run the other way. This is one part of the list.
# Assay: Primary qHTS for Identification of Small Molecule Inhibitors of Huntingtin Promoter Activity; further: nearly all actives have a fitted effect of over 50% in size
# Conditions: HEK293 HTT promoter firefly luciferase reporter (activity 0% = vehicle and -100% = no light), 24 h; activity change, negative = inhibition: at the top concentration
# Procedure, shortened: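 HEK293 Fluc reporter, 2,500 cells/well, 24 h pre-culture; cpds up to 57.5 uM final, 24 h 37 degrees C; Dual-Glo, 10 min RT; normalized vehicle = 0%, zero RLU = -100%.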
row,Compound,"activity change, negative = inhibition"
1,Oc1ccc2[nH]cc(CCCCN3CC=C(c4ccccc4)CC3)c2c1,inactive: -9.13%
2,COc1ccc(-c2nc(CN3C(=O)CN=C(c4ccccc4)c4ccccc43)c(C)o2)cc1OC,inactive: -14%
3,CCc1ccc(OCC(=O)N2CCN(CCc3ccccn3)CC2)cc1,inactive: -13.9%
4,COc1ccccc1-n1c(/C=C/c2ccccc2)nc2ccccc2c1=O,inactive: 1.44%
5,Cn1c(CCCC(=O)O)nc2cc(N(CCCl)CCCl)ccc21,inactive
6,CCCCc1nc2ccccc2c(=O)n1-c1cccc(OC)c1,inactive: -17.4%
7,COc1nn(CSP(=S)(OC)OC)c(=O)s1,inactive: -15.6% [at 116 µM]
8,CC(Cc1ccccc1)NCCn1cnc2c1c(=O)n(C)c(=O)n2C (stereo not drawn),inactive: -5.03% [at 116 µM]
9,N[C@@H]1C[C@H]1c1ccccc1,inactive: 3.05%
10,CC(C)NCC(O)c1ccc([N+](=O)[O-])cc1 (stereo not drawn),inactive: -5.59%
11,CCOP(=S)(OCC)O/N=C(\C#N)c1ccccc1,inactive: 5.75%
12,C=CC(=O)NCNC(=O)C=C,inactive: 17.5% [at 116 µM]
13,CSc1ccc(C(c2c(O)c3ccccc3oc2=O)c2c(C)n(C)n(-c3ccccc3)c2=O)cc1 (stereo not drawn),inactive: -21.3%
14,CN1CCN(c2csc3ccc(F)cc3c2=O)CC1,inactive: 4.2%
15,CC(=O)[C@H]1CC[C@H]2[C@@H]3CC[C@H]4C[C@](C)(O)CC[C@]4(C)[C@H]3CC[C@]12C,inactive: 5.43%
16,NC1=NC(=O)C(c2ccccc2)O1 (stereo not drawn),inactive: 8.49%
17,CCOC(=O)C1(c2ccccc2)CCN(CCC(C#N)(c2ccccc2)c2ccccc2)CC1,inactive: -10.9%
18,CN(C)CCc1ccc(O)cc1,inactive
19,CCOc1ccc(-n2c(/C=C/c3ccccc3)nc3ccccc3c2=O)cc1,inactive: -26%
20,ClCCCN1CCN(c2cccc(Cl)c2)CC1,inactive: -13.2%
21,C[C@]12CC[C@H]3[C@@H](CCC4=CC(=O)CC[C@@]43C)[C@H]1CC[C@H]2O,inactive: -5.51%
22,CCC1(c2ccccc2)C(=O)N(COC)C(=O)N(COC)C1=O,inactive: -3.94%
23,CCN(CC)C(=O)N[C@@H]1C=C2c3cccc4[nH]cc(c34)C[C@@H]2N(C)C1,inactive: -13.3%
24,N#Cc1cc([N+](=O)[O-])ccc1NC(=O)c1cccn(Cc2cccc(F)c2)c1=O,inactive: -11.5%
25,O=C(Nc1ccc2c(c1)OCCO2)c1cccn(Cc2cccc([N+](=O)[O-])c2)c1=O,inactive: -28.1%

row,Compound,"activity change, negative = inhibition"
1,O=C(CCl)c1ccc(Cl)cc1Cl,inactive: -0.253%
2,C#C[C@]1(O)CC[C@H]2[C@@H]3CCC4=CC(=O)CCC4=C3C=C[C@@]21CC,inactive: -11.9%
3,Cc1cccc(C)c1NC(=O)CN1CCCC1=O,inactive
4,O=C(COc1ccccc1[N+](=O)[O-])N1CCN(CCc2ccncc2)CC1,inactive: -12.7%
5,Oc1ccc2c3c1O[C@H]1[C@@H](O)C=C[C@H]4[C@@H](C2)NCC[C@@]341,inactive: -7.45% [at 116 µM]
6,CCNc1nc(Cl)nc(NCC)n1,inactive: 0.81%
7,C[C@@H]1CC2=CC(=O)CC[C@@H]2[C@H]2CC[C@@]3(C)[C@@H](CC[C@]3(C)O)[C@@H]21,inactive: -16.3%
8,Cc1cccc(C)c1OCC(=O)Nc1ccc(Cl)cc1C(=O)c1ccccc1,inactive: -10.1%
9,CN1CCC(O)(c2ccc(F)cc2)C(C(=O)c2ccc(F)cc2)C1 (stereo not drawn),inactive: 2.41%
10,COP(=O)(OC)OC=C(Cl)Cl,inactive: 7.03%
11,CC(C)C(Br)C(=O)NC(N)=O (stereo not drawn),inactive: -5.51%
12,N#CC(C#N)=Cc1ccc(O)c(O)c1,inactive: 16.5%
13,Cc1ccc(-n2c(/C=C/c3cc(Br)cs3)nc3ccccc3c2=O)cc1C,inactive: -30.3%
14,COc1ccc(C)cc1NC(=O)c1cccn(Cc2ccccc2Cl)c1=O,inactive: -6.03%
15,CC(CC(C#N)(c1ccccc1)c1ccccc1)N(C)C (stereo not drawn),inactive: -18.4% [at 116 µM]
16,COP(=O)(OC)C(O)C(Cl)(Cl)Cl (stereo not drawn),inactive: 3%
17,O=c1n(Cl)c(=O)n(Cl)c(=O)n1Cl,inactive: 16.1%
18,Cn1cc(C2=C(c3cn(C4CCN(Cc5ccccn5)CC4)c4ccccc34)C(=O)NC2=O)c2ccccc21,inactive
19,Cn1c(=O)n(C)c2cc(CNCCc3ccccc3F)ccc21,inactive: -11.2%
20,C=CCN1CC[C@]23c4c5ccc(O)c4O[C@H]2C(=O)CC[C@@]3(O)[C@H]1C5,inactive: 10.6%
21,OCCOc1ccccc1,inactive: 10.2%
22,O=C1CC(c2ccccc2Br)c2c(c3ccccc3oc2=O)O1 (stereo not drawn),inactive: -6.37%
23,ClCc1cccc(Cl)c1,inactive: -4.05%
24,O=S(=O)(O)C(F)(F)C(F)(F)C(F)(F)C(F)(F)C(F)(F)C(F)(F)C(F)(F)C(F)(F)F,inactive: 5.2% [at 116 µM]
25,COc1c2c(cc3c1OCO3)CCN(C)C2,inactive: 1.79%

row,Compound,"activity change, negative = inhibition"
1,C[C@]12CC[C@@H]3c4ccc(OC(=O)N(CCCl)CCCl)cc4CC[C@H]3[C@@H]1CC[C@@H]2OP(=O)(O)O,inactive: 15.4%
2,N#Cc1ccccc1NC(=O)c1cccn(Cc2ccccc2)c1=O,inactive: -50.4%
3,O=c1c(C2CC(c3ccc(-c4ccc(Br)cc4)cc3)Cc3ccccc32)c(O)sc2ccccc12 (stereo not drawn),inactive: -26.2%
4,COC(=O)[C@@H](N)CCCN/C(N)=N/[N+](=O)[O-],inactive: -6.07%
5,O=C1C=CC[C@@H]2[C@H]3CCCN4CCC[C@@H](CN12)[C@@H]34,inactive: -47.9%
6,Nc1ccc(Cl)cc1,inactive: -10.5% [at 116 µM]
7,CN[C@@H](C)[C@H](O)c1ccccc1,inactive: -6.1%
8,COc1ccc(Cl)cc1NC(=O)c1sc2nc3c(cc2c1N)N1CCC3CC1,inactive: -4.45%
9,CCC(C(=O)Nc1ccccc1F)N1C(=O)CN=C(c2ccccc2)c2ccccc21 (stereo not drawn),inactive: -11%
10,CC[C@]1(O)CC[C@H]2[C@@H]3CCC4=CCCC[C@@H]4[C@H]3CC[C@@]21C,inactive: -7.44%
11,Clc1ccccc1N1CCNCC1,inactive: 5.36%
12,c1ccc2c(c1)Nc1ccccc1S2,inactive
13,C[C@]12CC[C@H]3[C@@H](CC=C4C[C@@H](O)CC[C@@]43C)[C@@H]1CC[C@@H]2O,inactive: -5.32%
14,CC(C)c1ccc(NC(=O)CN2C(=O)CN=C(c3ccccc3)c3ccccc32)cc1,inactive: -15.3%
15,CC(C)(C)C(O)C(Oc1ccc(Cl)cc1)n1cncn1 (stereo not drawn),inactive: -13.9% [at 116 µM]
16,COc1ccc(OCC(=O)N2CCN(CCc3ccccn3)CC2)cc1,inactive: 47.6% [at 11.5 µM]
17,COc1cc(CC(C)N)c(OC)cc1Br (stereo not drawn),inactive: -3.71% [at 116 µM]
18,NCC(O)c1ccc(O)cc1 (stereo not drawn),inactive: -1.1%
19,O=C(Cn1cc(C(=O)c2ccccc2)c2ccccc21)Nc1ccc(Br)cc1,inactive: -22.1%
20,Nc1ccc(Cl)cc1C(=O)c1ccccc1F,inactive: -16.1%
21,CN(C)CCc1c[nH]c2cccc(O)c12,inactive: -0.517% [at 116 µM]
22,Cc1cccc(CN2C(=O)CN=C(c3ccccc3)c3cc(Cl)ccc32)c1,inactive: -30%
23,CCCc1ccc(OCC(=O)Nc2ccc(Cl)cc2C(=O)c2ccccc2)cc1,inactive: 2.89%
